# Experimental data reported in the supplement of paper PMC3334620.
# In all, about 33,000 sequences were measured (“E-score (-0.5 to 0.5)”: median about -0.016, highest 2% from about 0.32 on). The list shows a part of the results.
# Biological target: T1, Stp1 (UniProt B3LFK1)
# T1 sequence: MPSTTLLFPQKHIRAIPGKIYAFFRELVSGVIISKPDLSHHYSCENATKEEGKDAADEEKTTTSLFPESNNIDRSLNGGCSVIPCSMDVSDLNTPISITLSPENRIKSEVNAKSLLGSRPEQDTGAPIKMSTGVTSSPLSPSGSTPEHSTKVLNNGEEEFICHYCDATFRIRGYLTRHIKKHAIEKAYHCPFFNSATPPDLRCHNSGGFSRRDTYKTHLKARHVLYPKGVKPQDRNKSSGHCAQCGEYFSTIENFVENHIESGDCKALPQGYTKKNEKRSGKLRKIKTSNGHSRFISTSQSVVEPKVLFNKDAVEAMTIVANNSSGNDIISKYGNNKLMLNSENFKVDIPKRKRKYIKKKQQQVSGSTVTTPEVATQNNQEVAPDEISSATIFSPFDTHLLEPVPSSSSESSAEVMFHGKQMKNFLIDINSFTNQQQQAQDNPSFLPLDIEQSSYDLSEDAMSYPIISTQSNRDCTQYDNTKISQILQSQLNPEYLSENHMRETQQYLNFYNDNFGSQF
# Experiment: PBM E-score (8-mer binding enrichment) (E-score (-0.5 to 0.5)); higher = stronger / more preferred TF binding; most listed sequences are background and not binding sites
# Details: protein concentration: 200 nM; construct: GST-full length
# Summary of the method: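 Universal all-10-mer Agilent arrays, fresh or stripped once, were converted to double-stranded form by primer extension. GST-tagged yeast transcription factors from PURExpress in vitro transcription/translation, full-length or DNA-binding domain only, were applied at about 100-200 nM and detected with fluorescent anti-GST. After masliner normalisation, the Universal PBM Analysis Suite scored each ungapped eight-base word together with its reverse complement by E-score.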
row,Sequence,PBM E-score
1,ATCACTTA,-0.0814
2,GTGGGGCA,-0.0812
3,ATTAATCG,0.11
4,TCTCATCA,0.0266
5,CTGTAGGC,-0.0839
6,GCGCATCA,-0.0269
7,GCACGGAA,0.276
8,CGAGTTGA,-0.0551
9,AAAAGGGC,0.0404
10,AGGTAGAA,-0.135
11,CACGCAAA,-0.0453
12,AATTTCCA,0.142
13,GGTAGGCA,-0.034
14,AAGTCCAA,0.00792
15,ATCGTACC,-0.172
16,CAGCTTAC,0.00113
17,AGCTGCTC,-0.127
18,AAAGGTGC,0.0054
19,GGGACTAA,-0.237
20,ATGCTTCA,-0.0772
21,GGAGGACA,-0.145
22,AATGGCAT,0.356
23,AATACTGA,-0.0458
24,AACGACCA,-0.0875
25,AGAACTGG,-0.00022

row,Sequence,PBM E-score
1,GGGGGCTA,-0.316
2,CGTCGGAC,-0.171
3,TACAGGGA,-0.227
4,AAGCGACC,-0.00088
5,CGAGCTGC,0.00684
6,ACTTTCTA,-0.119
7,GAAACAAC,0.0536
8,ACATACGG,0.261
9,GGTCTAAA,-0.114
10,CTCCACCA,-0.327
11,TAAGACCA,-0.199
12,GGACCAGA,-0.0819
13,GCCCACTA,-0.166
14,AGCCTATA,-0.0714
15,CCGCTGGC,-0.146
16,GAAACACC,0.0719
17,CATAAGGG,-0.0274
18,AATTGATC,-0.0583
19,AGTGAGAT,-0.0136
20,AGTCCCCG,-0.273
21,AGTGTATC,0.0651
22,CGCAAGTC,-0.309
23,ATGCGTAA,-0.0947
24,TATACCCA,-0.118
25,CCCTTGCG,-0.169

row,Sequence,PBM E-score
1,AGAGCACT,-0.0395
2,CGGGTATA,0.171
3,AGGGTCGG,-0.169
4,TAGTGAAA,0.00941
5,CCCTAGGC,-0.111
6,CGTACTAG,0.0843
7,GGACCTTA,-0.137
8,CGGGCACC,0.237
9,AAACTCTG,0.0551
10,ATTTTCTA,0.12
11,GGTACCAA,-0.0801
12,AAAAGTTC,0.168
13,CTACCCGA,-0.112
14,ATGACCGA,-0.171
15,AGAGGCGG,0.061
16,ACACTCGA,0.0199
17,GCCGAGCC,0.235
18,AATAGATG,0.0249
19,GTTAGTTA,0.143
20,CGTGCTGC,0.23
21,CATTTGAA,-0.0106
22,CTCTCCGC,0.159
23,AACTGATA,0.144
24,CTGCAACC,-0.183
25,GTACTTTA,-0.0385

row,Sequence,PBM E-score
1,CCCAGCCG,-0.189
2,CACTGTCC,-0.147
3,AAAACTTG,0.17
4,CTAAATTA,0.121
5,GCAGCCGC,0.281
6,GGTCGCCA,-0.223
7,AGTAGCGC,0.0214
8,GCTTGGAC,-0.0946
9,AATGCGAC,0.141
10,CACGGGAC,0.0861
11,GCCCAAGC,0.0308
12,CCCATGTC,-0.183
13,CTCCCTTA,-0.287
14,TAGAATCA,0.067
15,ATTAACCC,-0.00649
16,ACTAGTGA,-0.134
17,CCATCCTA,-0.0429
18,CGGGCCAC,-0.0797
19,CTAAGCAC,0.114
20,GACTAGGC,-0.0379
21,TCGAAAGA,-0.00504
22,AAGGTGCT,-0.0616
23,CCCAATGA,-0.139
24,CGATGTAA,0.0131
25,AACTGACC,-0.229

row,Sequence,PBM E-score
1,GGATCTAC,-0.105
2,ATACAAGA,0.00694
3,ACGCGTAG,0.0455
4,CATCACGG,0.091
5,AACAACCA,0.0647
6,GGTATGGA,-0.137
7,CTCCATCC,-0.161
8,ATACTGCC,0.114
9,GCTTAAAA,0.165
10,CATTTCCA,0.0507
11,GCGTCCAC,-0.124
12,AATTGGTG,0.106
13,ACGGCGTC,0.472
14,CGTATAAC,0.217
15,CGATATCC,0.0519
16,AATGAGCG,0.0869
17,ATAGCTTG,-0.0558
18,GTAAAATA,0.162
19,ACGCTGAT,0.0676
20,AACCGGCT,-0.13
21,GTCAGGAA,-0.152
22,CAGTGTCC,0.0396
23,CCACCTTA,-0.206
24,GTGTTGTA,0.109
25,CAACACCC,-0.2

row,Sequence,PBM E-score
1,CCTCACTC,-0.0347
2,CGGCGGTC,0.216
3,AGGCTAAC,-0.064
4,TAGTAAGA,-0.042
5,ATAATAAG,0.177
6,CTCGCCCC,-0.194
7,AGTATTAA,0.141
8,CTCGCAAG,0.0643
9,ACCCAGGC,-0.106
10,CCGCCGAA,0.216
11,CAACTGAA,-0.028
12,ATGGGGCA,0.212
13,GGAGATCA,-0.0865
14,CGCGGGAA,0.0432
15,GTGAGTTA,-0.0798
16,AGTGATGA,-0.127
17,AGCACCCC,-0.128
18,GGACATAA,-0.0555
19,CTCGGGGA,-0.286
20,AAGACATA,0.0549
21,AACAAGTC,0.0314
22,CTCCAGAA,0.0504
23,ACATCTAT,0.118
24,AGAAAGCG,0.122
25,ACTTCGGA,-0.0461

row,Sequence,PBM E-score
1,CCCTATGC,-0.156
2,CCTAAGGA,0.013
3,AGGCGACT,0.0881
4,ATTCCTCG,-0.0929
5,AACCGTAT,-0.0259
6,ACTTACAA,0.195
7,AAGAGTAA,0.192
8,CAACACCG,0.0621
9,CTATAGTC,-0.305
10,CTTACTCC,-0.0284
11,GTGGCAAC,0.216
12,ATGGGTAA,-0.00955
13,CCGCCCCA,0.109
14,AGTGTCTA,-0.0646
15,CGTAATCA,0.213
16,ACTCCCCA,-0.21
17,AATAGCGG,0.0188
18,GAGTATTA,0.17
19,GCAGAGTA,-0.182
20,CCTTCGTC,-0.112
21,CTCCGCCC,-0.192
22,GAGATTGC,-0.101
